Assay [1] has as its target T1, GST-hDbr1 (human), Q9UK59.
T1 chain: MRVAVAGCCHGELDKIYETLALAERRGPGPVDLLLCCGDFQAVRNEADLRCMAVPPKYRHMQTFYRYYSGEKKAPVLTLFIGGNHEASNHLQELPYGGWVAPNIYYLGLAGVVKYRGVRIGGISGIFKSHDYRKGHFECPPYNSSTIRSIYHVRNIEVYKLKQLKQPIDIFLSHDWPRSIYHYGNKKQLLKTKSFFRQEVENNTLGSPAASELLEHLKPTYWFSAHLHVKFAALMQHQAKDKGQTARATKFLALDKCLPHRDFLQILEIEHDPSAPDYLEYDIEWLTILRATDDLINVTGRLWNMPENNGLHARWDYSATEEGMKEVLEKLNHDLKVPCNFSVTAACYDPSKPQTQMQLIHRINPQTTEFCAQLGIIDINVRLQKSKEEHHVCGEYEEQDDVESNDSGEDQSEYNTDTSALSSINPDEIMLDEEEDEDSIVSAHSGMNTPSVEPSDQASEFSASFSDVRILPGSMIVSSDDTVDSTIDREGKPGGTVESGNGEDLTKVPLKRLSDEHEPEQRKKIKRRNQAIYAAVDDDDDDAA
Put plainly: pull-down; 5 μg GST or GST fusion protein immobilised on glutathione beads; [35S]methionine-labelled in vitro translated protein added in 50 mM Tris-HCl pH 7.4, 200 mM NaCl, 2 mM EDTA, 0.1% NP-40, 4 °C, 1 h; five washes; SDS-PAGE and fluorography; only the target purified. The note with it: remark: other sources report otherwise.

Assay [2] has as its target T2, Flag-Xab2 (xeroderma pigmentosum, complementeation group A (XPA)-binding protein 2), expressed in HEK293T (UniProt Q9HCS7).
T2 sequence: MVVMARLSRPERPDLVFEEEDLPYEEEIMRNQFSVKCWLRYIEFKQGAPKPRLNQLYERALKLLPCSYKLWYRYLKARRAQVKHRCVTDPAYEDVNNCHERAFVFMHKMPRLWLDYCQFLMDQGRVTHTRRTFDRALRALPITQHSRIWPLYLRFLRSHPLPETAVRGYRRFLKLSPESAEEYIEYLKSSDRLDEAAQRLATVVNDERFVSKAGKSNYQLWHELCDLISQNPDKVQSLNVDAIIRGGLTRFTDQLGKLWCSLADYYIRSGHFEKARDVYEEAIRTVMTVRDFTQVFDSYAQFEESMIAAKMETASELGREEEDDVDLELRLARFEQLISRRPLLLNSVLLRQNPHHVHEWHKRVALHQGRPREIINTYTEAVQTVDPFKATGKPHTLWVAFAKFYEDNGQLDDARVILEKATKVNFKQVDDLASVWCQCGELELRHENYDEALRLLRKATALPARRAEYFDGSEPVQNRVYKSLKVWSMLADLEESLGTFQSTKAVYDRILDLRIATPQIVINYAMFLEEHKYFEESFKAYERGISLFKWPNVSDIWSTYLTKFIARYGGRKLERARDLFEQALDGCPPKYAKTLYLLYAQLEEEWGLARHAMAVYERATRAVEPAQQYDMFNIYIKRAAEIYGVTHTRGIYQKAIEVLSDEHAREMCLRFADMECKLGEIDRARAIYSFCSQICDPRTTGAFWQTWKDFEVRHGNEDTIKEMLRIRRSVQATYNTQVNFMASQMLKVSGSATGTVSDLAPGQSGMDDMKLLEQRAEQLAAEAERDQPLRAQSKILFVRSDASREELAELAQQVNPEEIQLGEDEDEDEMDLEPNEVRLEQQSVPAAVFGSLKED
The assay is described as follows: co-IP; Flag-tagged protein precipitated with anti-Flag M2 agarose from whole-cell extract of transfected HEK293T cells (buffer E: 20 mM Tris-HCl pH 8.0, 100 mM KCl, 0.2 mM EDTA, 0.2 mM PMSF; 60 min, 4 °C; five washes); Western blotting of the precipitates. A general note: In western blotting, separated proteins are transferred to a membrane and probed.

In a further assay the target is T3, Flag-hDrn1 (human) (UniProt Q69YN2).
T3 sequence: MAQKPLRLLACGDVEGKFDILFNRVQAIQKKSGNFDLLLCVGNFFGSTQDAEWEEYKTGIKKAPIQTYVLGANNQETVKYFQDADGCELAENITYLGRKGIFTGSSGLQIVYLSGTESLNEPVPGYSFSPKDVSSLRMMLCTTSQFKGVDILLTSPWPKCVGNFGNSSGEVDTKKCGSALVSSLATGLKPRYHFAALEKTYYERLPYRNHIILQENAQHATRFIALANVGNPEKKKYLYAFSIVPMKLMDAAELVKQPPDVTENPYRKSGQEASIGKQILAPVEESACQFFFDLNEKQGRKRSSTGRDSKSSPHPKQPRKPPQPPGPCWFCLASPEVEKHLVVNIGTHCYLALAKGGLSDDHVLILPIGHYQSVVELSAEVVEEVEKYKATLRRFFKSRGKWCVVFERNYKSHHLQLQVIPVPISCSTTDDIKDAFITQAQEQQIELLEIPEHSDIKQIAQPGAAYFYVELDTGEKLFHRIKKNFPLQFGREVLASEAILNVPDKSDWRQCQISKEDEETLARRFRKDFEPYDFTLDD
The description is as above.

Assay [3] has as its target T4, Flag-IBP160, expressed in HEK293T, O60306.
T4 chain: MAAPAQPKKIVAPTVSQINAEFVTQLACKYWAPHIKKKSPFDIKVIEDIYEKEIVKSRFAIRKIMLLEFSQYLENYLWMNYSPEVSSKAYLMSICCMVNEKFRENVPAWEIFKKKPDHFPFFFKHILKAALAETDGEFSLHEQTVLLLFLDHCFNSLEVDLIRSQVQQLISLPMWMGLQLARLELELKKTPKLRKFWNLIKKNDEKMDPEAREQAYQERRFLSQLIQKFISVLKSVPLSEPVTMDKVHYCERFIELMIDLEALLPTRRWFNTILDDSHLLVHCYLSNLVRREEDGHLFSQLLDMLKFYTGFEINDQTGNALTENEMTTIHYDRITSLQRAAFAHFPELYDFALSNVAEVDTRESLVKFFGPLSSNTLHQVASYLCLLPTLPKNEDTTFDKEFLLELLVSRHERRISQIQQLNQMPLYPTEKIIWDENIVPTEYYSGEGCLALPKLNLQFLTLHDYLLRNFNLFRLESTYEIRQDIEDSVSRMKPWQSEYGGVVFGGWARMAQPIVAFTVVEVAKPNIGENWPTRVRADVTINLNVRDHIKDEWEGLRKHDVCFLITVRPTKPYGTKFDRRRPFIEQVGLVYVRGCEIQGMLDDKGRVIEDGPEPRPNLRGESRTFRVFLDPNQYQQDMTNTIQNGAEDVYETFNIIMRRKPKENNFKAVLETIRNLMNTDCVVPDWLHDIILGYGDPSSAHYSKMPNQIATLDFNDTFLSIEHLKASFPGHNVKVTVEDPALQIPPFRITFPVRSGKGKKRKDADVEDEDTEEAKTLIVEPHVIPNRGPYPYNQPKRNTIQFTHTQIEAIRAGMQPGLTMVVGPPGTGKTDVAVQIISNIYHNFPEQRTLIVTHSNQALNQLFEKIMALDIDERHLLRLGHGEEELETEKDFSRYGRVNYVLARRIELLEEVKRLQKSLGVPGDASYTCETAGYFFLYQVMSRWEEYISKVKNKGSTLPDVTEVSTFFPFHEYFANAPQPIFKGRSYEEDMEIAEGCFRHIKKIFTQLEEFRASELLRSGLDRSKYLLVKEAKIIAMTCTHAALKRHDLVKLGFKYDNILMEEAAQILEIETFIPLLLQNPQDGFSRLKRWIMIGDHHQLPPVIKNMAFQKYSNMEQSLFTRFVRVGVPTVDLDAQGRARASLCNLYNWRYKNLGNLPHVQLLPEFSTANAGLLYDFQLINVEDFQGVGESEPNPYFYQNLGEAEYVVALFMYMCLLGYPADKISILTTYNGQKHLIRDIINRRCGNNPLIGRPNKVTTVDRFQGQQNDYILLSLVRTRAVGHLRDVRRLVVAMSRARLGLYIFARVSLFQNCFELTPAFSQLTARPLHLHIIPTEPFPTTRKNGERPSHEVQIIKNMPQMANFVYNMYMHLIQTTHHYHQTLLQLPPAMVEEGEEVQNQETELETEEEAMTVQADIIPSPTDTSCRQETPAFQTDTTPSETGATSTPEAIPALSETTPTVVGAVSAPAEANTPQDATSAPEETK
Described as above. The note with it: remark: other sources report otherwise.

The target of assay [4] is T5, Flag-hPrp19, expressed in HEK293T (human), Q9UMS4.
T5 chain: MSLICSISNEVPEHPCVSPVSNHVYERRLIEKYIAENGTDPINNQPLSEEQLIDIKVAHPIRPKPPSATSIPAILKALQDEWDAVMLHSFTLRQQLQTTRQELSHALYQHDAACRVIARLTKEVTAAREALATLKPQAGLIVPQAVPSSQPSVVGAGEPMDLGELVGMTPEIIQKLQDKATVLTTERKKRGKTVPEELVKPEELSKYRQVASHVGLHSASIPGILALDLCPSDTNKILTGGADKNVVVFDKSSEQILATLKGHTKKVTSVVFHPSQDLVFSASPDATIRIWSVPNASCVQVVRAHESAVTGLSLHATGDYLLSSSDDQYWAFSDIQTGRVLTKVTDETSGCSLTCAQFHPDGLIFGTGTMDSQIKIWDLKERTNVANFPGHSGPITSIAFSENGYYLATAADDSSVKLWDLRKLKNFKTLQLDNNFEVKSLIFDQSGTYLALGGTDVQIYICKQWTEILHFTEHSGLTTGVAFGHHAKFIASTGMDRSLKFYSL
Described as above. The note with it: remark: other sources report otherwise.

No constants are given. Whether binding was seen depends on the method and setting. Binding seen in cells or lysates may run through a third protein. Some results given as binding are weak or reduced against the parent protein; the word gives no strength. Sequences can lack the tags named with a protein.

B1: Flag-tagged hPrp19, in vitro translated, Q9UMS4 1-504 (protein)
chain: MSLICSISNEVPEHPCVSPVSNHVYERRLIEKYIAENGTDPINNQPLSEEQLIDIKVAHPIRPKPPSATSIPAILKALQDEWDAVMLHSFTLRQQLQTTRQELSHALYQHDAACRVIARLTKEVTAAREALATLKPQAGLIVPQAVPSSQPSVVGAGEPMDLGELVGMTPEIIQKLQDKATVLTTERKKRGKTVPEELVKPEELSKYRQVASHVGLHSASIPGILALDLCPSDTNKILTGGADKNVVVFDKSSEQILATLKGHTKKVTSVVFHPSQDLVFSASPDATIRIWSVPNASCVQVVRAHESAVTGLSLHATGDYLLSSSDDQYWAFSDIQTGRVLTKVTDETSGCSLTCAQFHPDGLIFGTGTMDSQIKIWDLKERTNVANFPGHSGPITSIAFSENGYYLATAADDSSVKLWDLRKLKNFKTLQLDNNFEVKSLIFDQSGTYLALGGTDVQIYICKQWTEILHFTEHSGLTTGVAFGHHAKFIASTGMDRSLKFYSL
On to B1, for which, in assay [1], the binding result is given as “no binding”.

B2: human Debranching enzyme 1 (hDbr1), endogenous (protein, UniProt Q9UK59-1 1-544)
chain: MRVAVAGCCHGELDKIYETLALAERRGPGPVDLLLCCGDFQAVRNEADLRCMAVPPKYRHMQTFYRYYSGEKKAPVLTLFIGGNHEASNHLQELPYGGWVAPNIYYLGLAGVVKYRGVRIGGISGIFKSHDYRKGHFECPPYNSSTIRSIYHVRNIEVYKLKQLKQPIDIFLSHDWPRSIYHYGNKKQLLKTKSFFRQEVENNTLGSPAASELLEHLKPTYWFSAHLHVKFAALMQHQAKDKGQTARATKFLALDKCLPHRDFLQILEIEHDPSAPDYLEYDIEWLTILRATDDLINVTGRLWNMPENNGLHARWDYSATEEGMKEVLEKLNHDLKVPCNFSVTAACYDPSKPQTQMQLIHRINPQTTEFCAQLGIIDINVRLQKSKEEHHVCGEYEEQDDVESNDSGEDQSEYNTDTSALSSINPDEIMLDEEEDEDSIVSAHSGMNTPSVEPSDQASEFSASFSDVRILPGSMIVSSDDTVDSTIDREGKPGGTVESGNGEDLTKVPLKRLSDEHEPEQRKKIKRRNQAIYAAVDDDDDDAA
Regarding B2, the binding result in assay [2] was “binds weakly”; with Flag-hDrn1 (human), “binds”.

B3: human Debranching enzyme 1 (hDbr1), endogenous, Q9UK59-1 1-544 (protein)
chain: MRVAVAGCCHGELDKIYETLALAERRGPGPVDLLLCCGDFQAVRNEADLRCMAVPPKYRHMQTFYRYYSGEKKAPVLTLFIGGNHEASNHLQELPYGGWVAPNIYYLGLAGVVKYRGVRIGGISGIFKSHDYRKGHFECPPYNSSTIRSIYHVRNIEVYKLKQLKQPIDIFLSHDWPRSIYHYGNKKQLLKTKSFFRQEVENNTLGSPAASELLEHLKPTYWFSAHLHVKFAALMQHQAKDKGQTARATKFLALDKCLPHRDFLQILEIEHDPSAPDYLEYDIEWLTILRATDDLINVTGRLWNMPENNGLHARWDYSATEEGMKEVLEKLNHDLKVPCNFSVTAACYDPSKPQTQMQLIHRINPQTTEFCAQLGIIDINVRLQKSKEEHHVCGEYEEQDDVESNDSGEDQSEYNTDTSALSSINPDEIMLDEEEDEDSIVSAHSGMNTPSVEPSDQASEFSASFSDVRILPGSMIVSSDDTVDSTIDREGKPGGTVESGNGEDLTKVPLKRLSDEHEPEQRKKIKRRNQAIYAAVDDDDDDAA
Consider B3, for which the binding entry in assay [3] and in assay [4] was “no binding” each time.
